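Test compounds were applied to cells in 96-well plates for 48 hours at 5 doses. Abbreviation: GI50, concentration required for 50% inhibition of growth. At the TGI there is no net growth.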
System: NCI-H322M lung
Experiment: NCI tumour cell line growth inhibition, 48 h

O=C(c1ccc(O)cc1)C1[C@H](c2ccc(Br)cc2)[C@@H](c2ccccc2)NC12C(=O)Nc1ccc(Br)cc12 (stereo not given in full)
GI50: 4.2 µM
TGI: 8.49 µM

CC1=C(C(=O)Nc2ccccc2)C(c2ccc3ccccc3c2)n2c(nc3ccccc32)N1 (stereo not given)
GI50: 23.2 µM
TGI: 67.1 µM

Clc1ccc2c(N/N=C/c3c[nH]c4ccc(Br)cc34)ccnc2c1
GI50: 1.57 µM
TGI: 2.92 µM

O=C(CNc1nc(-c2ccccc2)cs1)Nc1ccc(Br)cc1
GI50: 1.48 µM
TGI: 2.81 µM

COc1ccc2[nH]cc(-c3nc(N)nnc3-c3cn(C)c4ncc(Br)cc34)c2c1
GI50: 0.684 µM
TGI: > 100 µM
